# Data from PubChem BioAssay AID686970 (National Center for Advancing Translational Sciences (NCATS), 2013).
# Screen size: about 360,000 compounds; about 6,000 (1.7%) were called active. The inconclusive results got no clear call from the source; some entries with a clear call stand among them for comparison. Calls follow the shape of the dose curve; as a rule, active = well fitted cell-killing curve with a large enough effect; inconclusive = small, poorly fitted or top-dose-only effect, or effect the other way; inactive = flat fitted curve, though single readings scatter. No potency is given beside an inconclusive call; the fits are too rough.
# Experiment: qHTS for induction of synthetic lethality in tumor cells producing 2HG: qHTS for the HT-1080-NT fibrosarcoma cell line;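 also: NT is the 2HG producing partner of a matched IDH1 knockdown line; nearly all actives have a fitted effect of over 55% in size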;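 as to activity, negative = less viability: 0% = DMSO-treated cells and -100% = media-only wells without cells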
# Settings: HT-1080-NT fibrosarcoma viability, CellTiter-Glo ATP luminescence, 48 h; activity, negative = less viability: at 46.1 µM (top of the series) unless noted
# How it was run: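 A 48-hour cytotoxicity screen used HT-1080-NT cells plated 2 hours before compound delivery. ATP-based CellTiter-Glo luminescence measured viability, normalized to DMSO and no-cell controls.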
# Potency is read from the fitted curve at half-maximal effect; tags tell the direction and shape of the fitted curve.
SMILES,Potency,"activity, negative = less viability"
O=C(OCC(=O)N1CCN(c2ccccc2)CC1)c1cc(F)c(F)cc1Cl,inactive,
CN(C)C(=O)COC(=O)[C@H](Cc1ccccc1)NC(=O)c1ccco1,,inconclusive: 36.7%
O=C(c1cc(-c2cccc(O)c2)on1)N1CCN(C(c2ccccc2)c2ccccc2)CC1,"inconclusive [cytotoxic, single point]",
O=C(Nc1cccc(/C=C/c2nc3ccccc3c(=O)[nH]2)c1)c1ccccc1Cl,"inconclusive [cytotoxic, single point]",
CCOC(=O)c1n[nH]n2c1nc(=O)c1ccccc12,,inconclusive: 12%
OC[C@H]1O[C@@H](c2nc(-c3cccc4ccccc34)no2)[C@H](O)[C@@H]1O,"inconclusive [cytotoxic, partial curve]",
Cc1ccc(S(=O)(=O)N(C)C)cc1NC(=O)c1cc(C(C)(C)C)nn1Cc1ccccc1,inactive,
COc1ccc2ccccc2c1C1NC(=O)c2ccccc2N1 (configuration not stated),active: 5.17 µM,
Cc1nc(N)sc1-c1csc(Nc2cccc(C(=O)O)c2)n1,inactive,
COc1cc(C2OC(=O)C3C(c4ccc(OC(C)=O)c(OC)c4)OC(=O)C23)ccc1OC(C)=O (configuration not stated),inactive,
Cc1ccn2c(NC3CCCCC3)c(C(C)C)nc2c1,inactive,
COc1ccccc1C1C(C(=O)c2cc3ccccc3o2)=C(O)C(=O)N1CCN1CCOCC1 (configuration not stated),inactive,
Cc1ccc(C(=O)N2N=C(c3ccc(Br)cc3)CC2c2ccccc2O)cc1 (configuration not stated),active: 14.6 µM,
CCc1cccc(CC)c1NC(=S)NC(C)c1ccccc1 (configuration not stated),inactive,
Cc1cccc(OCC(=O)Nc2cc(S(=O)(=O)N3CCOCC3)ccc2N2CCCC2)c1C,inactive,
COc1cc(/C=N/NC(=O)Cn2nc([N+](=O)[O-])cc2C)cc(Br)c1OCc1ccccc1,"inconclusive [cytotoxic, partial curve]",
COc1cc(OC)cc(C(=O)Nc2ccc3c(c2)OCCO3)c1,"inconclusive [cytotoxic, partial curve]",
COc1cc(CNc2ccc(O)cc2)cc(Br)c1OCc1ccccc1F,"inconclusive [cytotoxic, single point]",
CN(C)c1ccc(C=c2c3ccccc3n3c2c2ccccc2[n+]3C)cc1,active: 23.1 µM,
O=C(OCCN1C(=O)c2cccc3c(N4CCOCC4)ccc(c23)C1=O)c1ccc(Cl)cc1Cl,active: 1.84 µM,
CC1C/C(=N/O)C(C)CN1 (configuration not stated),inactive,
c1csc(-c2ccc(N3CCOCC3)nn2)c1,"inconclusive [cytotoxic, single point]",
O=C(Nc1nc(COc2ccccc2)cs1)C12CC3CC(CC(C3)C1)C2,active: 6.31 µM,
COc1cc(-c2noc(C)c2C#Cc2ccc(N)cc2)cc(OC)c1OC,active: 0.82 µM,

SMILES,Potency,"activity, negative = less viability"
CC(CC(=O)Nc1ccc2c(c1)c(=O)n(C)n2-c1cccs1)c1ccccc1 (configuration not stated),"inconclusive [cytotoxic, partial curve]",
NNC(=S)Nc1ccccc1Cl,"inconclusive [cytotoxic, single point]",
CCc1ccc(NC(=O)[C@H](NC(=O)[C@@H]2Cc3ccccc3CN2)c2ccccc2)cc1,"inconclusive [cytotoxic, single point]",
CCOc1ccc(C(=O)Nc2nnc(NC(=S)Nc3ccccc3)s2)cc1,"inconclusive [cytotoxic, single point]",
CC(C)CC(CO)N1CCN(C(=O)c2cccc(Cl)c2)CCC1=O (configuration not stated),"inconclusive [cytotoxic, single point]",
O=C(Nc1cccc(Cl)c1)c1ccc(NCCCN2CCOCC2)c([N+](=O)[O-])c1,"inconclusive [cytotoxic, single point]",
Cc1nc2scc(-c3ccccc3)c2c(=O)n1N=C1C=CC(=O)C=C1,active: 18.4 µM,
CCc1ccc(NC(=O)c2c(C(=O)Nc3ccccc3)sc3nc(C)cc(=O)n23)cc1,"inconclusive [cytotoxic, single point]",
C[C@@H]1CN([C@@H](C)CO)C(=O)Cc2cc(NC(=O)Nc3ccc(F)cc3)ccc2O[C@@H]1CN(C)Cc1ccc(Cl)c(Cl)c1,active: 18.4 µM,
O=C(NCc1nnc(SCc2ccccc2)n1-c1ccccc1)C12CC3CC(CC(C3)C1)C2,"inconclusive [cytotoxic, single point]",
CCOc1cc(CNCCO)cc(Br)c1OCc1cccs1,"inconclusive [cytotoxic, single point]",
C=C(C)COc1ccc(-c2nc(N)nc(C(F)(F)F)c2-c2ccc(OC)cc2)c(O)c1,"inconclusive [cytotoxic, single point]",
CN(Cc1ccccc1)C(=O)CC(c1ccccc1)c1cc(Cl)ccc1O (configuration not stated),"inconclusive [cytotoxic, single point]",
Cc1ccc(NC(=S)N(C)C(c2ccccc2)c2ccccc2)cc1C,"inconclusive [cytotoxic, single point]",
Cc1csc(N=Nc2ccc(N(C)C)cc2)[n+]1[O-],"inconclusive [cytotoxic, single point]",
O=C(NCc1cccc(Cl)c1)c1cccc(OC2CCN(C(=O)C3CC3)CC2)c1,"inconclusive [cytotoxic, single point]",
CCOCCCNCc1cc(Br)ccc1OCc1ccccc1,inactive,
CCOC(=O)/C(=C\c1ccc(Cl)cc1)c1nc2sc(C)c(C)c2c(=O)[nH]1,active: 10.3 µM,
Cc1ccccc1CN1[C@@H]2c3ccccc3C[C@@H]2OCCS1(=O)=O,"inconclusive [rising, single point]",
NC1=NC[C@H](CC2CCCCC2)N1CCc1cc(C(F)(F)F)cc(C(F)(F)F)c1,"inconclusive [cytotoxic, single point]",
CCOC(=O)Nc1cc(=O)c2ccccc2o1,active: 8.91 µM,
CC1=NNC(=O)C1CCC(=O)N/N=C/c1ccc(C)cc1 (configuration not stated),,inconclusive: 30.1%
CC1CCc2cc(F)ccc2N1C(=O)CCl (configuration not stated),"inconclusive [cytotoxic, single point]",
